Measurements published in PubChem BioAssay AID686970 (National Center for Advancing Translational Sciences (NCATS), 2013).
Hit rate of the full screen: of about 360,000 compounds, about 6,000 (1.7%) were called active. This list was built around the results that the source calls inconclusive (neither active nor inactive); the mix of calls is not that of the screen. The call rests on the fitted dose curve; in most records, active means well fitted cell-killing curve with a large enough effect; inconclusive means small, poorly fitted or top-dose-only effect, or effect the other way; inactive means flat fitted curve, though single readings scatter. Potencies of inconclusive entries are left out as doubtful fits.

test: qHTS for induction of synthetic lethality in tumor cells producing 2HG: qHTS for the HT-1080-NT fibrosarcoma cell line; details: HT-1080-NT fibrosarcoma viability, CellTiter-Glo ATP luminescence, 48 h; activity, negative = less viability: at 46.1 µM (top of the series) unless noted;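 further: NT is the 2HG producing partner of a matched IDH1 knockdown line; nearly all actives have a fitted effect of over 55% in size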;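 on activity, negative = less viability: 0% = DMSO-treated cells and -100% = media-only wells without cells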
In short: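 Viability of the 2HG-overproducing fibrosarcoma line after 48 hours of compound exposure at 37 degrees C was determined by luminescence with CellTiter-Glo, and concentration-effect curves were then fitted and categorized.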
Potency means the concentration at half of the fitted maximal effect; tags describe the fitted curve by direction and shape.

| SMILES | Potency | activity, negative = less viability |
| --- | --- | --- |
| COc1ccc(CC(N)c2csc(Nc3ccc(C(=O)c4ccccc4)cc3)n2)cc1 (centres undefined) | inconclusive [cytotoxic, partial curve] | – |
| COc1ccc(CCNc2ccc(N3C(=O)CC(C)C3=O)cc2[N+](=O)[O-])cc1OC (centres undefined) | inconclusive [cytotoxic, single point] | – |
| O=C(N/N=C/c1cn(-c2cccs2)nc1-c1ccccc1)c1ccccc1O | inconclusive [cytotoxic, single point] | – |
| C=C(C(=O)c1ccccc1)C(c1ccccc1)C(C)C(=O)c1ccccc1 (centres undefined) | inconclusive [cytotoxic, single point] | – |
| CCn1c(CCc2ccccc2)n[nH]c1=S | inconclusive [cytotoxic, single point] | – |
| Cc1[nH]c(=O)[nH]c(=O)c1CSCC(=O)OCC(=O)Nc1ccccn1 | inconclusive [rising, single point] | – |
| CC1C(=O)N2CCCc3cc(NC(=O)c4ccccc4Br)cc1c32 (centres undefined) | – | inactive: 11.2% |
| Cc1cc(NC(=O)CSc2nc(-c3ccco3)cc(C(F)(F)F)n2)n(-c2ccccc2)n1 | inconclusive [cytotoxic, full curve] | – |
| COC(=O)CC1(c2ccc(OC)cc2)C(=O)c2ccccc2C1=O | inconclusive [cytotoxic, single point] | – |
| CCOc1ccc(-n2cc(-c3ccccc3)c3c(N4CCOCC4)ncnc32)cc1 | inconclusive [cytotoxic, partial curve] | – |
| COc1ccc(NC(=O)C2(C)CCN2Cc2cccc(OC)c2OC)cc1OC (centres undefined) | – | inactive: 4.84% |
| O=[N+]([O-])c1cc(S(=O)(=O)N2CCCCCC2)ccc1Cl | active: 23.1 µM | – |
| NC(=O)c1cc2cc(Cc3ccccc3Cl)ccc2oc1=O | inconclusive [cytotoxic, single point] | – |
| CCN(CC)C(=O)c1sc(NC(=O)c2c(OC)cccc2OC)c(C#N)c1C | inconclusive [rising, partial curve] | – |
| COc1ccc(-c2noc(-c3ccccc3C(=O)NCc3ccco3)n2)cc1 | – | inactive: -5.27% |
| CN(C)CCNC(=O)c1cccc2nc3cccc(F)c3nc12 | inconclusive [cytotoxic, partial curve] | – |
| CCOC(=O)C1(CCOc2ccccc2)CCN(Cc2cc(OC)c(O)c(OC)c2)CC1 | – | inactive: -19.3% |
| CCCn1c(SCC(=O)c2c(N)n(C3CC3)c(=O)[nH]c2=O)nnc1-c1ccncc1 | – | inactive: -3.35% |
| COc1cccc(/C=N/NC(=O)Cn2nc(C)c([N+](=O)[O-])c2C)c1O | inconclusive [cytotoxic, single point] | – |
